Experimental findings from ChEMBL document CHEMBL4888484, “Replenishing the malaria drug discovery pipeline: Screening and hit evaluation of the MMV Hit Generation Library 1 (HGL1) against asexual blood stage Plasmodium falciparum ,using a nano luciferase reporter read-out” (2022) are described below.

In all, about 150,000 compounds went through this assay and about 540 (0.36%) showed an effect of 50% or more. This is one part of the list.

The subject of this test is Plasmodium falciparum. The experiment in a line: Primary screen in NF54 nanoGlo assay, in single point, at 2uM, 72h; a lower Z score goes with more inhibition. The class given is functional, Erythrocyte. As to conditions: timepoint 72 hour.
For the molecule `OCCN1CCN(CCCOCCc2ccccc2)CC1`, the “% Inhibition” value is reported as -9% and the Z score is reported as 1.23.
Taken in the same sequence, the figures for `CCS(=O)(=O)N1C[C@@H]2CN(Cc3ccncc3)C[C@]2(c2nc(C)no2)C1` were 7% and -0.96.
With `CC(C)c1nnc(C2CCN(C(=O)c3ccc4nsnc4c3)CC2)o1`, the “% Inhibition” value turned out to be 14% and the Z score is -1.87.
`CCCCN(C)C(=O)c1ccc2c(c1)N(CCC)C(=O)[C@@H]1CCC(=O)N21`: the “% Inhibition” value was 1% and the Z score is listed as -0.16.
For the molecule `O=C(NC1(c2noc([C@H]3CCOC3)n2)CCCCCC1)c1ccnc2ccnn12`, the “% Inhibition” value was -11% and the Z score is on record as 1.79.
Take `Cc1ccc(-c2csc(NC(=O)CN3CCN(Cc4ccc(F)cc4Cl)CC3)n2)cc1C`: the “% Inhibition” value is given as -19% and the Z score is listed as 2.04.
With `Cc1ncsc1CCC(=O)N1CCC([C@@H](O)CCc2ccccc2)CC1`, the “% Inhibition” value was -11% and the Z score is reported as 2.28.
Consider `Cc1cccc(NS(=O)(=O)[C@H]2CCS(=O)(=O)C2)c1C`, for which the “% Inhibition” value was -5% and the Z score is 0.54.
As for `O=C(CCOc1ccccc1)N1C[C@@H]2CC[C@H]1CN(Cc1ccccn1)C2`, the “% Inhibition” value was found to be 0% and the Z score is recorded as -0.03.
Taken in the same sequence, the figures for `CCCC1CCCCC1NC(=O)Cc1nnc(C2CCOCC2)[nH]1` (stereo not given) were 8% and -0.9.
Regarding `O=C(N[C@H]1CCN(C2CCC2)C1=O)c1cc(F)cc2ccoc12`, the “% Inhibition” value is on record as -4% and the Z score was 0.51.
For the molecule `COc1ccc([C@H]2C[C@@H]2CC(=O)Nc2n[nH]c(C)c2-c2cccc(Cl)c2)cc1`, the “% Inhibition” value stood at 2% and the Z score was -0.29.
`CCCN1C[C@@H](NS(=O)(=O)c2cnn(CC)c2)CC1=O`: the “% Inhibition” value is on record as -4% and the Z score is on record as 0.45.
Taken in the same sequence, the figures for `COc1ccc(N2CC3(CCN(C(=O)OCc4ccccc4)CC3)OC2=O)cc1OC` were -7% and 1.09.
Turning to `CCc1ccc([C@@H]2CCCCCN2Cc2nnc(C3CC3)o2)o1`, the “% Inhibition” value is recorded as -2% and the Z score is reported as 0.24.
In the case of `CCc1cc(NCCCc2c(C)n[nH]c2C)ncn1`, the “% Inhibition” value is recorded as -2% and the Z score was found to be 0.41.
For the molecule `CC(C)N1CCC(N2CCC[C@H](C(=O)NCCc3ccccc3F)C2)CC1`, the “% Inhibition” value is reported as 2% and the Z score is -0.29.
In the case of `Cc1ccnc(NC(=O)c2ccc(-c3ccccc3)cc2)n1`, the “% Inhibition” value was -3% and the Z score came to 0.3.
Turning to `O=C(N[C@H]1CCN(c2nccs2)C1)c1ccncc1`, the “% Inhibition” value was -11% and the Z score came to 2.12.
As for `Cc1ccc(CN(Cc2ccccc2)Cc2nc(C(=O)NCCc3ccccn3)co2)c(C)c1`, the “% Inhibition” value is -13% and the Z score stood at 2.5.
On to `N#Cc1ccccc1OCC(=O)OCCN1CCCC1=O`, for which the “% Inhibition” value was -8% and the Z score was 1.14.
Turning to `Cc1nc(C)c(C(=O)N2CC[C@]34C(=O)N(CC(=O)NCCCOc5cccc(c5)[C@H]23)c2ccccc24)s1`, the “% Inhibition” value is -9% and the Z score is listed as 1.69.
In the case of `CC(C(=O)NCC1CCCO1)N(C)Cc1nccn1CC(F)(F)F` (stereo not given), the “% Inhibition” value is -10% and the Z score is recorded as 1.52.
For the molecule `COc1ccc(NC(=O)Cn2c(C)ccc2C)cc1N1CCCCS1(=O)=O`, the “% Inhibition” value is on record as -11% and the Z score stood at 1.13.
Take `COc1ccc(S(=O)(=O)N2CCc3c(C(=O)NCc4ccncc4)cccc32)cc1`: the “% Inhibition” value is reported as -17% and the Z score is recorded as 1.91.
As for `Cc1cc(C(=O)NC[C@@H]2COc3ccccc3C2)c(C)n1C`, the “% Inhibition” value is -11% and the Z score is 1.99.
As for `O=C(c1sccc1S(=O)(=O)N1CCCC1)N1CCc2sccc2C1`, the “% Inhibition” value is on record as -4% and the Z score was 0.74.
For the molecule `COc1ccc(CN2CCOC[C@H](O)C2)cc1`, the “% Inhibition” value is reported as 28% and the Z score is given as -3.12.
Take `Cc1cccc2c1N(C(=O)Cc1ccc(S(N)(=O)=O)s1)CC2`: the “% Inhibition” value came to 4% and the Z score is on record as -0.47.
In the case of `CC(C)c1cncnc1N1CC(c2cccnc2)C1`, the “% Inhibition” value is -13% and the Z score amounted to 1.24.
Take `C[C@@H](CN1CCc2ccccc2C1)NC(=O)c1cccc(-n2cnnc2)n1`: the “% Inhibition” value was found to be 0% and the Z score was determined as 0.06.
In the case of `O[C@@H](CN(Cc1ccccc1)c1ncccn1)c1ccsc1`, the “% Inhibition” value is on record as -8% and the Z score was found to be 1.12.
As to `CCN(Cc1cnc2ccccn12)C(=O)Nc1ccc(C)c(C)c1`, the “% Inhibition” value was found to be 5% and the Z score is -0.77.
With `CC(C)(C)OC(=O)NCc1cc(C(=O)O)sc1Cl`, the “% Inhibition” value was -13% and the Z score is 2.44.
Taken in the same sequence, the figures for `Cc1cc(C)cc(-c2nc(-c3ccc4c(c3)ncn4CCC(=O)N3CCCC3)no2)c1` were -12% and 1.5.
With `Cn1ncnc1CN(CCc1ccccc1)c1ccc(O)cc1`, the “% Inhibition” value is reported as -9% and the Z score stood at 1.43.
As for `O=C(NC1CC2CCC1O2)N1CCCC1CC(O)c1ccco1` (stereo not given), the “% Inhibition” value was determined as 0% and the Z score is listed as 0.03.
For `CC(C)c1cnc(CNc2cccc(CO)c2)s1`, the “% Inhibition” value worked out at 9% and the Z score is listed as -1.12.
Regarding `COCCN(C)c1ccc(NCc2cccc3cn[nH]c23)nc1`, the “% Inhibition” value is -3% and the Z score is reported as 0.56.
Regarding `CCCCCC1CCC(c2ccc(-c3nc(CCC)no3)cc2)CC1` (stereo not given), the “% Inhibition” value stood at 0% and the Z score is listed as 0.
Take `CC[C@H]1CN(S(=O)(=O)c2c(C)noc2C)CCO1`: the “% Inhibition” value is -3% and the Z score is 0.62.
With `N#Cc1ccccc1-c1nc2ccc(-c3ccc(C(F)(F)F)cc3)cc2o1`, the “% Inhibition” value was -10% and the Z score is 1.48.
For the molecule `O=C(NCCCN1CCCC1=O)C(=O)Nc1nccs1`, the “% Inhibition” value is recorded as -19% and the Z score is listed as 2.97.
In the case of `O=S(=O)(Cc1cccc(F)c1)N1C2CCC1CC(Oc1cccnc1)C2` (stereo not given), the “% Inhibition” value is recorded as -9% and the Z score worked out at 1.
`C[C@@H](C(=O)NC1(C(N)=O)CCCC1)n1ccnc1`: the “% Inhibition” value is given as -3% and the Z score stood at 0.36.
For `COc1cc(CCNC(=O)N2CCCC3CN(C)CCC32)ccc1F` (stereo not given), the “% Inhibition” value was -2% and the Z score came out at 0.22.
Taken in the same sequence, the figures for `CC(C)C(=O)Nc1cc2c(cc1S(=O)(=O)C1CCCCC1)n(C)c(=O)n2C` were -10% and 1.56.
`Cc1sc2ncnc(N3CC(n4cc(CO)nn4)C3)c2c1C`: the “% Inhibition” value amounted to 3% and the Z score is on record as -0.49.
As to `O=C1CCC2(CCN(C(=O)c3ccc4ccccc4n3)CC2)N1`, the “% Inhibition” value is given as -10% and the Z score amounted to 1.42.
`CC(C)(CC(=O)O)CC(=O)Nc1cccc(C(F)(F)F)c1`: the “% Inhibition” value is reported as -7% and the Z score is given as 1.06.
Taken in the same sequence, the figures for `C#CCNC(=O)N(C)Cc1cnc(C)s1` were -1% and 0.07.
For `COc1ccc(CN2CC3(CCCCC3)C[C@@H]2COc2ccncc2)cc1O`, the “% Inhibition” value is recorded as -10% and the Z score stood at 1.72.
Taken in the same sequence, the figures for `CN1CCN(CC(=O)Nc2sc3c(c2C#N)CCC3)CC1` were 2% and -0.3.
Consider `CCOC(=O)N1CCC(C)(CNc2cnn(CC(=O)NC)c2)CC1`, for which the “% Inhibition” value is on record as -7% and the Z score is given as 0.7.
On to `C[C@H](Nc1cccc(CO)c1)C(=O)NC(=O)NC1CC1`, for which the “% Inhibition” value is recorded as -4% and the Z score came out at 0.44.

Broadly, the % Inhibition is the relative decrease from the control value, in per cent.
